Structures are written as SMILES. The whole screen tested about 310,000 compounds, of which about 2,200 (0.71%) showed an effect of 50% or more. Effects have a minus sign here. This is one part of the list.

human ether-à-go-go-related gene (hERG) potassium channel, sequence (Q12809 whole entry, looked up): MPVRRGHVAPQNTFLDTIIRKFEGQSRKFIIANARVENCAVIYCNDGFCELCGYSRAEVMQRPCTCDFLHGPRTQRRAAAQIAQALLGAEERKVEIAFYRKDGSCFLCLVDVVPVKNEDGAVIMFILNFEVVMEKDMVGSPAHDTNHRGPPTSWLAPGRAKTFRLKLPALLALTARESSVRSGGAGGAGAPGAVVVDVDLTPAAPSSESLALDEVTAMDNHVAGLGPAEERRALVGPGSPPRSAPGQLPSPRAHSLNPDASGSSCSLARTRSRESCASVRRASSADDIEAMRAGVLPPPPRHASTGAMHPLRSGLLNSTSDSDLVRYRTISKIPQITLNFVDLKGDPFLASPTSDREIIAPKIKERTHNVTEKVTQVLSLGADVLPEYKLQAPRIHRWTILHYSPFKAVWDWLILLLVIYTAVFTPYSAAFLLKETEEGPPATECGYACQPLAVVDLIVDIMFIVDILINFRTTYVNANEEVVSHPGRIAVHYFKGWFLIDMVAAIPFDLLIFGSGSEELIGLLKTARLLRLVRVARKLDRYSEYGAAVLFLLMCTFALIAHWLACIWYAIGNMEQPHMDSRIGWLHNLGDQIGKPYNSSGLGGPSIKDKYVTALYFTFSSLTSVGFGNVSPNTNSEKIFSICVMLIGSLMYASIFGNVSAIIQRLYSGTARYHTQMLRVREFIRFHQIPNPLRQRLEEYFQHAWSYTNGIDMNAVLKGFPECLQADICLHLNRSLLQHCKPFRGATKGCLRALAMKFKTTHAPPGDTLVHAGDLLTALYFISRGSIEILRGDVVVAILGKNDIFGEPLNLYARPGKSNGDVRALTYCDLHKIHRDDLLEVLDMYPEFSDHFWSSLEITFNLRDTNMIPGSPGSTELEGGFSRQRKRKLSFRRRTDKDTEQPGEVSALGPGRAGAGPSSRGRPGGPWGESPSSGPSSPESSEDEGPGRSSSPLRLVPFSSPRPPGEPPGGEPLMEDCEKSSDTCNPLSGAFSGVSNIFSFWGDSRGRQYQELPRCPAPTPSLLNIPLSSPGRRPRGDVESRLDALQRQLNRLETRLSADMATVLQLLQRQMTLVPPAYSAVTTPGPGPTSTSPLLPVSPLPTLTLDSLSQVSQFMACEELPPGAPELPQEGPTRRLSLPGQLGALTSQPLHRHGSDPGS

This experiment has as its target human ether-à-go-go-related gene (hERG) potassium channel (human, UniProt Q12809). Nature of the experiment: primary screen, population patch clamp on CHO cells stably expressing hERG.
Regarding `CN(CC(=O)O)S(=O)(=O)c1ccc2[nH]c(=O)c(=O)[nH]c2c1`, the “hERG current change (%, negative = inhibition) at 1uM” value is given as -4.88%.
As for `COc1ccc(Cc2noc(COc3ccc(Cl)cc3)n2)cc1`, the “hERG current change (%, negative = inhibition) at 1uM” value was 9.9%.
As for `O=[N+]([O-])c1ccc(-c2csc3[n+]2CCS3)cc1.[Br-]`, the figure is -18.1%; as for `N#CCc1ccc(NC(=O)c2ccccc2C(=O)Nc2ccc(CC#N)cc2)cc1`, 11.5%; as for `COc1ccc(-c2cc(C(=O)N3CC4(C)CC3CC(C)(C)C4)no2)cc1` (centres unmarked), 13%.
In the case of `CC(=O)CSc1nc2c(c(=O)[nH]c(=O)n2C)n1Cc1cccc(Br)c1`, the “hERG current change (%, negative = inhibition) at 1uM” value amounted to 4.17%.
The same measure for `COC(=O)c1c(C)nc(C)c(C(=O)OC)c1-c1ccsc1`: 10.9%.
As for `COc1cccc(C(=O)OC(C)C(=O)NCC2CCCCC2)c1` (centres unmarked), the figure is -1.02%.
As for `NS(=O)(=O)c1ccc(CCNC(=O)c2cc(-c3ccccn3)nc3ccc(Br)cc23)cc1`, the figure is 2.43%; as for `Cc1cccc(C)c1NC(=O)CSc1nnc(NC(=O)c2ccccc2C(=O)O)s1`, 11.7%.
For the compound `COc1ccc(CNS(=O)(=O)c2ccc3c(c2)NC(=O)C(C)S3)cc1` (centres unmarked), the “hERG current change (%, negative = inhibition) at 1uM” value worked out at 5.45%.
As for `N/C(=N\OC(=O)c1ccc(F)cc1)c1nonc1N`, the figure is 6.95%.
As for `COc1ccc(CNC(=O)/C=C/C(=O)O)cc1`, the figure is -2.9%.
As for `CCCCOC(C)n1cc(F)c(=O)[nH]c1=O` (centres unmarked), the figure is 14.1%; as for `C(=N\n1cnnc1)/c1ccc(-c2ccccc2)cc1`, 0.629%; as for `O=[N+]([O-])c1cc(CN2CCCC2)c2cccnc2c1O`, -0.841%.
With `CCCCCn1c(=O)c(C(=O)NCc2ccccn2)c(O)c2ccccc21`, the “hERG current change (%, negative = inhibition) at 1uM” value amounted to 1.29%.
The same measure for `Cc1c(Nc2ncnc3c2cnn3-c2ccccc2)c(=O)n(-c2ccccc2)n1C`: 10.6%; for `CC(C)Oc1cc(-n2c(=S)[nH]c3ccccc3c2=O)c(Cl)cc1Cl`: 13.8%.
As for `O=C1c2ccccc2C(=O)N1CCCc1c[nH]c2ccc(Cl)cc12`, the “hERG current change (%, negative = inhibition) at 1uM” value was -8.51%.
`Cc1cccc(N2CCN(C(=O)CC(NC(=O)c3ccccc3)c3ccccc3)CC2C)c1` (centres unmarked): the “hERG current change (%, negative = inhibition) at 1uM” value is reported as -4.83%.
With `Cc1ccccc1C(=O)NNC(=O)c1cccc([N+](=O)[O-])c1`, the “hERG current change (%, negative = inhibition) at 1uM” value worked out at 13.8%.
The same measure for `COc1cc(/C=N/NC(=O)Cc2cccs2)c([N+](=O)[O-])cc1OC`: 2.12%.
For the compound `Cc1nn(S(=O)(=O)N(C)C)c(C)c1CN1C(=O)c2ccccc2C1=O`, the “hERG current change (%, negative = inhibition) at 1uM” value was 4.75%.
As to `COc1cccc(NC(=O)CNC(=O)c2cccs2)c1`, the “hERG current change (%, negative = inhibition) at 1uM” value worked out at 5.16%.
The same measure for `Clc1ccc(-c2noc(/C=C/c3ccccc3)n2)cc1`: 19%; for `CC(/C=C/c1ccccc1)=N\NC(=O)CCc1ccccc1`: 10.7%.
Take `CC(C)=CCCC(C)CN(C)CCc1ccccn1` (centres unmarked): the “hERG current change (%, negative = inhibition) at 1uM” value was -10.9%.
In the case of `COc1ccc(OCCCC(=O)OC(C)C(=O)Nc2ccc(C)cc2)cc1` (centres unmarked), the “hERG current change (%, negative = inhibition) at 1uM” value is -1.32%.
As for `Cc1[nH]c2ccccc2c1C(=O)C(=O)NC1CC1`, the figure is 17.6%.
Take `Cc1ccc(C2=NS(=O)(=O)N(C)C(C(=O)Nc3ccc4c(c3)OCO4)=C2)cc1`: the “hERG current change (%, negative = inhibition) at 1uM” value is listed as 7.49%.
The same measure for `CCOC(=O)C1CCCN(S(=O)(=O)c2cc(OCC(=O)NC3CCCCC3)c(C)cc2Cl)C1` (centres unmarked): -4.51%; for `Cc1cccc(CC2S/C(=N/c3cccc(C)n3)NC2=O)c1` (centres unmarked): 7.59%.
As to `N#Cc1cnc(SCC(=O)NNC(=O)COc2cccc3ccccc23)nc1N`, the “hERG current change (%, negative = inhibition) at 1uM” value is reported as 2.06%.
As for `Cc1ccc(-n2c(C)nc3oc4ccccc4c(=O)c3c2=O)cc1`, the figure is 10.5%; as for `COc1cccc(N2C(=O)/C(=C\c3cccs3)NC2=S)c1`, 16.8%; as for `COc1ccccc1NCC(O)Cn1c2ccccc2c2ccccc21` (centres unmarked), -0.495%.
The same measure for `CCCCN(C(=O)C1=COCCO1)c1c(N)n(CCCC)c(=O)[nH]c1=O`: 3.66%; for `CC(C)C(C)NC(=O)CN1C(=O)NC(C)(c2ccc3ccccc3c2)C1=O` (centres unmarked): 15.3%; for `COc1ccc(OC)c(-c2csc(NC(=O)C3=COCCO3)n2)c1`: 12.1%.
The same measure for `Cc1cccc(N(CC(=O)NC(C)(C)C)C(=O)CNC(=O)c2cccs2)c1`: 13.5%; for `Cc1ccc(C)c2[nH]c(=O)c(CN(Cc3cccnc3)C(=S)NCc3ccco3)cc12`: -3.08%.
As for `COc1ccc(C2C(C#N)=C(N)N(c3sc4c(c3C#N)CCCC4)C3=C2C(=O)CC(C)(C)C3)cc1` (centres unmarked), the “hERG current change (%, negative = inhibition) at 1uM” value is on record as 5.64%.
As for `COc1nc2c(c(-c3cc(Br)cs3)c1C#N)Cc1ccccc1-2`, the “hERG current change (%, negative = inhibition) at 1uM” value worked out at 14.4%.
The same measure for `CCCC1=Nc2cc(C(=O)N3CCC(C(N)=O)CC3)ccc2Sc2ccccc21`: 15.9%; for `CCCCCSc1nnc(N)s1`: 7.57%.
In the case of `COc1ccc(/C=C/C(=O)N/C(=C\c2ccco2)C(=O)NCCc2nc3ccccc3[nH]2)cc1`, the “hERG current change (%, negative = inhibition) at 1uM” value is reported as -18.2%.
As for `CN(Cc1c(F)cccc1Cl)C(=O)CNC(=O)c1sc2ccccc2c1Cl`, the “hERG current change (%, negative = inhibition) at 1uM” value is 8.4%.
The same measure for `O=C(COC(=O)C1CC(O)CN1S(=O)(=O)c1ccc(Cl)cc1)c1cccc(Cl)c1` (centres unmarked): 34.1%.
Regarding `COc1ccccc1C(=O)Nc1ccc(S(=O)(=O)Nc2cc(C)on2)cc1`, the “hERG current change (%, negative = inhibition) at 1uM” value is 9.63%.
The same measure for `C/C(CC(=O)Nc1cc(Cl)ccc1C)=N\NC(=O)C(=O)N1CCCC1`: 14.7%; for `Cc1cc2c(cc1S(=O)(=O)CCC(=O)N1CC(C)CC(C)C1)OCC(=O)N2` (centres unmarked): -13.6%; for `O=C(CNS(=O)(=O)c1ccccc1)OCC(=O)c1c[nH]c2ccccc12`: 7.69%.
On to `CSCc1cccc(C(=O)OC(C)C(=O)Nc2c(C)n(C)n(-c3ccccc3)c2=O)c1` (centres unmarked), for which the “hERG current change (%, negative = inhibition) at 1uM” value is recorded as 8.97%.
The same measure for `CCOC(=O)c1cccc(NC(=O)CCCn2c(=O)c3cccn3c3cccnc32)c1`: 4.97%; for `Nc1cc(-c2nc3ncccc3o2)ccc1Cl`: 3.93%.
With `CCN1CCN(CC#CCOc2ccccc2OC)CC1.O=C(O)C(=O)O`, the “hERG current change (%, negative = inhibition) at 1uM” value came to 3.3%.
The same measure for `COCC(=O)Nc1nnc(-c2cccs2)s1`: 11.5%; for `COc1ccc(-c2cc3ccc(O)cc3oc2=O)cc1OC`: 15.5%.
As for `COc1cccc(OCC(O)CNC(C)c2ccccc2)c1.Cl` (centres unmarked), the figure is 7.69%; as for `Cc1ccc(NC(=O)CSCC(=O)N(C)CC(=O)Nc2cccc3ccccc23)cc1`, -1.2%; as for `CCN(Cc1ccc(OC)c(F)c1)C(C)C(=O)Nc1ccc(S(=O)(=O)N2CCCC2)cc1` (centres unmarked), 1.92%.
The same measure for `Cc1ccc(SCC(=O)NCCCc2ccccc2)cc1`: 6.73%.
As for `CCCOc1ccc(C(=O)Nc2ccc(S(=O)(=O)Nc3cc(C)nc(C)n3)cc2)cc1`, the “hERG current change (%, negative = inhibition) at 1uM” value turned out to be 11.5%.
Turning to `NC(=O)SC/C(=N\S(=O)(=O)c1ccccc1)Nc1ccccc1`, the “hERG current change (%, negative = inhibition) at 1uM” value is listed as 9.22%.
Turning to `CC(C)C(=O)Nc1ccc2oc(-c3cc(F)c(F)cc3Cl)nc2c1`, the “hERG current change (%, negative = inhibition) at 1uM” value is given as 4.16%.
Take `c1cc2nnnn2nc1N1CCCCCC1`: the “hERG current change (%, negative = inhibition) at 1uM” value is listed as 2.99%.
Regarding `C#CC[N+]1(CC#Cc2ccc(C#CC[N+]3(CC#C)CCOCC3)cc2)CCOCC1.[Br-]`, the “hERG current change (%, negative = inhibition) at 1uM” value was 8.21%.
The same measure for `CCOc1ccc(Cn2c3ccc(OC)cc3c3nc4ccccc4nc32)cc1OC`: 12.3%; for `Cc1ccc(NC(=O)c2cnn(-c3ccccc3)c2NC(=O)c2ccco2)cc1C`: 14.6%.
With `C#CCOCCOCCOCCNc1nc(N2CCN(C(=O)[C@H](CCCCN)n3cc([C@@H](N)C(C)CC)nn3)CC2)nc(N2CCN(C(=O)[C@H](Cc3cc4ccccc4[nH]3)n3cc([C@@H](N)CC(C)C)nn3)CC2)n1.Cl` (some centres unmarked), the “hERG current change (%, negative = inhibition) at 1uM” value worked out at 14.1%.
As for `COc1cc(C=O)ccc1Oc1nnnn1-c1ccc(C(N)=O)cc1`, the figure is -6.2%.
As for `COc1ccccc1OCC(=O)NNC(=O)Nc1ccccc1`, the figure is 15.3%.
The same measure for `CC1CCC(NC(=O)CN2C(=O)c3cccnc3Oc3ccc(Cl)cc32)CC1` (centres unmarked): 5.38%.
On to `Cn1ncc2c(Nc3ccc(O)cc3)nc(Cl)nc21`, for which the “hERG current change (%, negative = inhibition) at 1uM” value is on record as 3.7%.
The same measure for `COc1ccccc1CNC(=O)C1CCN(S(=O)(=O)c2ccc3c(c2)CC(C)N3C(C)=O)CC1` (centres unmarked): 21.4%; for `COc1cccc(NC(=O)N2CCN(c3cccc(C)c3C)CC2)c1`: 2.4%; for `CC(=O)Nc1cccc(NC(=O)c2ccc3c(c2)CCN3S(=O)(=O)c2ccccc2)c1`: 9.95%.
Consider `CC(=O)CC(C)=NCCN=C(C)CC(C)=O`, for which the “hERG current change (%, negative = inhibition) at 1uM” value was -1.16%.
The same measure for `COc1cccc(C(=O)N2CCCC(c3nc(-c4cccs4)no3)C2)c1` (centres unmarked): 0.448%.
Regarding `CN(C)c1ccc(NS(=O)(=O)c2ccc(-c3csnn3)cc2)cc1`, the “hERG current change (%, negative = inhibition) at 1uM” value is 15.9%.
As for `O=C(COc1ccc2c3c(c(=O)oc2c1)CCCC3)NCC(O)c1ccccc1` (centres unmarked), the figure is 8.88%.
The same measure for `COc1cc(NC(=O)C(C)C)ccc1NC(=O)c1ccco1`: 11%.
On to `COc1cc(/C=C2\SC(=S)N(CCC(=O)NC3CCCC3)C2=O)cc(OC)c1OC`, for which the “hERG current change (%, negative = inhibition) at 1uM” value came to 4.62%.
The same measure for `CC(/C=N/NC(=O)c1cc(C2CC2)[nH]n1)=C\c1ccccc1`: 12.6%.
The same measure for `COC(=O)c1cc2sccc2n1CC(=O)Nc1cc(OC)cc(OC)c1`: 17.5%.

These data come from PMC4336329 (PLoS ONE, 2015).
